Measured values from PubChem BioAssay (Tox21).
“And” between values parts separate entries of the source, which are not always exact repeats. Equal entries are not always repeated. The inconclusive results got no clear call from the source; some entries with a clear call stand among them for comparison. Potencies of inconclusive entries are doubtful fits and often do not repeat. The source made the active and inactive calls. Calls follow the shape of the dose curve; as a rule, active = well fitted cell-killing curve with a large enough effect in the repeat runs; inconclusive = weak or mixed curves, or effect the other way; inactive = flat fitted curve, though single readings scatter.

experiment: qHTS RealTime-Glo MT Cell Viability Assay in HEK293 cells - 24 hour (AID 1224886); details: RealTime-Glo luminescence; series mostly up to 76.8 µM; activity change, negative = cytotoxicity: at the top concentration; also: nearly all actives have a fitted effect of over 50% in size; as to activity change, negative = cytotoxicity: top concentration of the series differs between compounds
Description: National Center for Advancing Translational Sciences [NCATS]
NIH Chemical Genomics Center [NCGC]
U.S. Environmental Protection Agency [EPA]
National Institutes of Environmental Health Sciences [NIEHS]
National Toxicology Program [NTP]
U.S. Food and Drug Administration [FDA]
Measure of cell viability is critical in the cell-base assay. Analysis of cell viability is necessary for the characterization of cell responses to cytotoxic drugs and environmental stress. A RealTime-Glo MT Cell Viability Assay to monitor cell viability in real time of continues cell culture during 40 hours of compound treatment was used to screen Tox21 10K library compounds in Hek293 cells. The RealTime-Glo MT Cell Viability Assay is a nonlytic, homogeneous, bioluminescent method to measure cell viability in real time using a simple, plate-based method. The assay involves adding NanoLuc luciferase and a cell-permeant prosubstrate to cells in culture. Viable cells reduce the proprietary prosubstrate to generate a substrate for NanoLuc luciferase. This substrate diffuses from cells into the surrounding culture medium, where it is rapidly used by the NanoLuc Enzyme to produce a luminescent signal. The signal correlates with the number of viable cells, making the assay well suited for cytotoxicity studies.
Tox21 Assay Protocol Summary:
The mixture of Hek293 cell suspension and reagents were dispensed at 600cells/6 ul/well in 1536-well tissue culture treated black solid bottom plates using a Multidrop dispenser. After the assay plates were incubated at a 37 C/5% CO2 incubator for 5 hours, 23 nL of compounds dissolved in DMSO, positive and negative controls was transferred to the assay plate by a pintool work station. The plates were incubated at 37 C for 40 hours. The luminescence intensity were measured at 0h, 8h, 16h, 24h, 32h and 40h time points using ViewLux plate reader during compound treatment.
% is scaled to controls: 0 for no effect and ±100 for the full control effect; potency is read from the fitted curve at half-maximal effect; tags tell the direction and shape of the fitted curve.

SMILES | Potency | activity change, negative = cytotoxicity
CC(=O)OCc1ccco1 | inconclusive: 54.9 µM [rising, partial curve, poor fit] | –
CCCCc1ccc(N)cc1 | inconclusive: 17.4 µM [cytotoxic, full curve] | –
O=C(O)c1nc(Cl)c(Cl)c(Cl)c1Cl | inconclusive: 38.9 µM [rising, partial curve, poor fit] | –
Nc1ccc(C(=O)Oc2ccccc2)c(O)c1 | – | inactive: -13.2% [at 35.3 µM]
Nc1ccc(Oc2cccc(Oc3ccc(N)cc3)c2)cc1 | – | inactive: -22%
CCOC(CN1CCN(CC(C)C(=O)c2ccccc2)CC1)c1ccccc1 (stereo not given) | inconclusive: 11.7 µM [cytotoxic, single point] | –
CC(C)=CCC/C(C)=C\C#N | – | inactive: 13.5%
CC[N+](C)(CC)CCOC(=O)C(O)(c1ccccc1)C1CCCCC1 (stereo not given) | – | inactive: 0.571% [at 35.3 µM]
COC(=O)Nc1ccc(Cl)c(Cl)c1 | inconclusive: 48.7 µM [cytotoxic, partial curve, poor fit] | –
CC(C)=CCC/C(C)=C/CC/C(C)=C/CO | inconclusive: 43.6 µM [cytotoxic, partial curve, poor fit] | –
C=C(C)C(=O)Nc1ccc(Cl)c(Cl)c1 | active: 19.7 µM and active: 21.8 µM | –
CC(C)(C)[C@@H](O)[C@@H](Cc1ccc(Cl)cc1)n1cncn1 | inconclusive: 61.2 µM [cytotoxic, partial curve, poor fit] and inconclusive: 43.6 µM [cytotoxic, partial curve, poor fit] | –
Cc1ccc(C(N)=O)cc1N | – | inactive: 19.1%
CN(C)CCCOc1nn(Cc2ccccc2)c2ccccc12 | inconclusive: 10.7 µM [cytotoxic, partial curve] | –
CC(C)(O)c1ccc(CNC(=O)c2cccnc2Oc2ccc(F)cc2)cc1 | inconclusive: 17.4 µM [cytotoxic, partial curve] | –
Clc1cccc(C(c2ccc3nc[nH]c3c2)n2ccnc2)c1 (stereo not given) | inconclusive: 5.35 µM [cytotoxic, single point] | –
Cc1oc2c(NC(=O)c3c(Cl)cccc3Cl)cccc2c1C(C)(C)O | inconclusive: 43.6 µM [cytotoxic, partial curve] | –
CCN(CC)CCCC(C)Nc1ccnc2cc(Cl)ccc12 (stereo not given) | inconclusive: 11.7 µM [cytotoxic, partial curve] | –
OC(CN1CCC(Cc2ccc(F)cc2)CC1)c1ccc(Cl)cc1 (stereo not given) | active: 9.52 µM | –
O=P(OC(CCl)CCl)(OC(CCl)CCl)OC(CCl)CCl | inconclusive: 49 µM [cytotoxic, partial curve] | –

SMILES | Potency | activity change, negative = cytotoxicity
CCCCCCC=O | inconclusive: 30.9 µM [rising, partial curve] | –
CCN(CC)c1ccc(C(=O)c2ccccc2C(=O)O)c(O)c1 | inactive | –
CN(C(=O)CCCOc1ccc2[nH]c(=O)ccc2c1)C1CCCCC1 | inconclusive: 16.9 µM [cytotoxic, partial curve] | –
O=[N+]([O-])c1ccc(Oc2ccc([N+](=O)[O-])cc2)cc1 | inconclusive: 28.2 µM [cytotoxic, partial curve] | –
CCNc1nc(NC(C)(C)C)nc(OC)n1 | inconclusive: 54.9 µM [cytotoxic, partial curve, poor fit] | –
NNS(=O)(=O)c1ccc(Oc2ccc(S(=O)(=O)NN)cc2)cc1 | – | inactive: -1.99%
CCOC(=O)COC(=O)c1cc(Oc2ccc(C(F)(F)F)cc2Cl)ccc1[N+](=O)[O-] | inconclusive: 54.9 µM [cytotoxic, single point] | –
Clc1ccccc1CN1CCc2sccc2C1 | inconclusive: 23.9 µM [cytotoxic, partial curve, poor fit] | –
O=C(O)c1cc(O)c(O)c(O)c1 | inconclusive: 55.5 µM [cytotoxic, partial curve] | –
N#Cc1ccc(C/C(=N/NC(=O)Nc2ccc(OC(F)(F)F)cc2)c2cccc(C(F)(F)F)c2)cc1 | – | inactive: -5.57%
CCc1ccc(CCOc2ccc(CC3SC(=O)NC3=O)cc2)nc1 (stereo not given) | inconclusive: 54.9 µM [cytotoxic, single point] | –
O=[N+]([O-])c1ccc(O)cc1C(F)(F)F | inconclusive: 30.9 µM [cytotoxic, partial curve] | –
[O-][N+](=Nc1ccccc1)c1ccccc1 | – | inactive: -3.55%
CC1=CC(=C(c2ccc(N)cc2)c2ccc(N)cc2)C=CC1=N | inconclusive: 2.21 µM [cytotoxic, partial curve] | –
O=c1[nH]c2ccc(S(=O)CCN3CCC(Cc4ccc(F)cc4)CC3)cc2o1 (stereo not given) | inconclusive: 34.7 µM [cytotoxic, partial curve] | –
CCC/C=C/CO | – | inactive: 1.3%
CNCCCC1c2ccccc2C=Cc2ccccc21 | inconclusive: 26.8 µM [cytotoxic, single point] | –
Fc1c(F)c(F)c(Br)c(F)c1F | – | inactive: 6.18%
CC1CC(=O)NN=C1c1ccc(NCC(C)(C)NCC(O)COc2cc(Cl)ccc2C#N)cc1 (stereo not given) | inconclusive: 10.7 µM [cytotoxic, full curve] | –
Fc1ccc(Br)cc1 | inconclusive: 24.8 µM [rising, partial curve, poor fit] | –
